Assay results as given in patent CN113651889A.
Each block holds one binder with its values, some of them ahead of it.

How the values were obtained:
[1] = biological target: EphA2 receptor on tumour cells (PC-3, HepG2, A549) and on lung adenocarcinoma tissue (human) (UniProt P29317); assay: flow cytometry on PC-3 cells, antibody at 1.25 ug/ml and above, Alexa Fluor 488 anti-human IgG
[2] = biological target: EphA2 receptor on tumour cells (PC-3, HepG2, A549) and on lung adenocarcinoma tissue (human) (UniProt P29317); assay: flow cytometry on A549 cells, antibody at 2.5 ug/ml and above, Alexa Fluor 488 anti-human IgG
[3] = biological target: EphA2 receptor on tumour cells (PC-3, HepG2, A549) and on lung adenocarcinoma tissue (human) (UniProt P29317); assay: flow cytometry on A549 cells, antibody at 1.25 ug/ml and above, Alexa Fluor 488 anti-human IgG
[4] = biological target: EphA2 receptor on tumour cells (PC-3, HepG2, A549) and on lung adenocarcinoma tissue (human) (UniProt P29317); assay: flow cytometry on PC-3 cells, antibody at 2.5 ug/ml and above, Alexa Fluor 488 anti-human IgG

Chain of UniProt P29317 (P29317 24-976): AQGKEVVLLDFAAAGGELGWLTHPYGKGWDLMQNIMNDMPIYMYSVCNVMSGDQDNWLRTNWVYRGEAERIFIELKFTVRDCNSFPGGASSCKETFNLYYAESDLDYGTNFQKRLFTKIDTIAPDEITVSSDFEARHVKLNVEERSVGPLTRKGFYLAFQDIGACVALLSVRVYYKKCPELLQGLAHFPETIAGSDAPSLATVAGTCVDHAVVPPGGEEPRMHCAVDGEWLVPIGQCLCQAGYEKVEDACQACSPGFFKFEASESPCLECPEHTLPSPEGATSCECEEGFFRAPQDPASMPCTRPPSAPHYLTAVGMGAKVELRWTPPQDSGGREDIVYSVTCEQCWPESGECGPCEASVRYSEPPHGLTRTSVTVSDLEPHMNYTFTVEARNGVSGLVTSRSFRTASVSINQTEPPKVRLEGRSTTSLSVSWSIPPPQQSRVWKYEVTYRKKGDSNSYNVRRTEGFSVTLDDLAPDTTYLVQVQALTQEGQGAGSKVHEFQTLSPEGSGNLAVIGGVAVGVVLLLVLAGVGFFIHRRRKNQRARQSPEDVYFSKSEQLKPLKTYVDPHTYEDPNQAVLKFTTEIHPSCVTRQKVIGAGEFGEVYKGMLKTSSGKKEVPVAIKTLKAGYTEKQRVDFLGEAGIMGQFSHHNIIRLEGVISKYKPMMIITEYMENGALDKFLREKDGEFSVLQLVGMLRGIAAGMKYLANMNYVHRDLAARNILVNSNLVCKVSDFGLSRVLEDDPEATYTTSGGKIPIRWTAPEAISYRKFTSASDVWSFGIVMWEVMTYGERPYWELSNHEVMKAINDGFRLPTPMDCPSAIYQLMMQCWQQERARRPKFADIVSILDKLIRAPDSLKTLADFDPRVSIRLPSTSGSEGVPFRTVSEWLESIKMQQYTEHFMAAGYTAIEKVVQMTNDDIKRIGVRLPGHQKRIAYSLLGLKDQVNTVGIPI

结合率 (percent of cells bound) [1]: > 99% | 结合率 (percent of cells bound) [2]: > 93%
B1: scFv179-Fc (Fc fusion)
chain: QVQLVESGGGLVQPGGSLRLSCAASGFTVSSNYMSWVRQAPGKELEWVSVIYSGGSTYYADSVKGRFTISRHNSKNTLYLQMNSLRAEDTAVYYCARDMGEYGMDVWGQGTTVTVSSGSASAPTGGGGSGGGGSGGGGSSYELTQPLSVSVSPGQTASITCSGDKLGNKYVSWYQQKPGQSPVLVIFQNNKRPSGIPERFSGSNSGNTATLTISGTQAMDEADFYCQAWDSSSAWVFGGGTKVTVL[gap - human IgG1 Fc]

结合率 (percent of cells bound) [1]: > 99% | 结合率 (percent of cells bound) [3]: > 99%
B2: scFv77-Fc (Fc fusion)
chain: QVQLVQSGAEVKKPGASVKVSCRASGYRFTGAYIHWVRQAPGQGLEWMGWINPDNGDTNYAQKFQGRVSLTGDTSISTTYMEMKSLTFGDTAVYYCARSRAADYWGQGTLVTVSSGGGGSGGGGSGGGGSQPVLTQSPSVSVSPGHRVTITCSGDNLGDKYVAWYQQKLGHSPVLVIFQDTKRPSGVPERFSGSTSENTATLTISGIQVLDEADYYCQAWDRSTAIFGGGTKVTVL[gap - human IgG1 Fc]

结合率 (percent of cells bound) [4]: > 86% | 结合率 (percent of cells bound) [2]: > 81%
B3: scFv14-Fc (Fc fusion)
chain: QVQLQQWGAGLLKPSETLSLTCAVYGGSFSGYYWSWIRQPPGKGLEWIGEINHSGSTNYNPSLKSRVTISVDTSKNQFSLKLSSVTAADTAVYYCARVLRWMGWFDPWGQGTLVTVSSGSASAPTGGGGSGGGGSGGGGSEIVLTQSPLSLPVTPGEPASISCRSSESLLHSNGHNFLDWYLQKPGQSPRLLIYSASNRASGVPDRFSGSGSGTDFTLKISRVEAEDVGVYYCMQGLQGLTFGGGTKVEIK[gap - human IgG1 Fc]
